# Test results as given in the BET-seq Pho4 binding data (Le et al. 2018).
# Some of the results follow. Values were computed here from the reads of four pooled replicates and scatter widely.
# Biological target: T1, Pho4 (S. cerevisiae) (UniProt P07270)
# T1 sequence: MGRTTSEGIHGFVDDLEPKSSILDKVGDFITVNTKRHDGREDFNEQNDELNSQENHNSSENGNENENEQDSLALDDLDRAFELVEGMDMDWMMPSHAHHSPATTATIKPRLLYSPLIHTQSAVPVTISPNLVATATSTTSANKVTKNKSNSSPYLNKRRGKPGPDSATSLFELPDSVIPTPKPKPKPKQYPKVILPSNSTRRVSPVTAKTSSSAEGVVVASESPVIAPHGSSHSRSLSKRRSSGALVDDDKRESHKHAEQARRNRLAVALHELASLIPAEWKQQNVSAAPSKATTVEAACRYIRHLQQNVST
# Assay: relative binding free energy (BET-seq); higher = weaker binding
# Settings: reference: library average
row,Sequence,relative binding free energy
1,CTGTTCACGTGGTGCT,0.23 kcal/mol
2,ATGGGCACGTGATGCT,0 kcal/mol
3,GTCGACACGTGTGGGA,0.02 kcal/mol
4,GGCGTCACGTGCAGGT,0.25 kcal/mol
5,TGGGCCACGTGGAATG,0.05 kcal/mol
6,TGCTTCACGTGTTTAT,0.34 kcal/mol
7,GTTGGCACGTGAGTGA,0.11 kcal/mol
8,TCGATCACGTGAGGTG,0.29 kcal/mol
9,TATTACACGTGCGTTG,-0.07 kcal/mol
10,ATGAGCACGTGGTATA,-0.19 kcal/mol
11,TGTTTCACGTGTCAGT,0.24 kcal/mol
12,GATTTCACGTGTCTTA,0.42 kcal/mol
13,TTGGTCACGTGAAATG,0.35 kcal/mol
14,TGAGCCACGTGCGAGG,0 kcal/mol
15,GTGAACACGTGTGTTG,0.01 kcal/mol
16,TGTAACACGTGTCGGT,0 kcal/mol
17,GTGGTCACGTGCTAGG,0.17 kcal/mol
18,GTTGTCACGTGATCGA,0.16 kcal/mol
19,GTTAACACGTGTGTGC,0.08 kcal/mol
20,TGTATCACGTGAATTT,0.35 kcal/mol
21,AGAGGCACGTGGCTGG,-0.16 kcal/mol
22,GTTATCACGTGTAACG,0.34 kcal/mol
23,GATGTCACGTGGTGGT,0.14 kcal/mol
24,TTGTACACGTGAGGCA,0.12 kcal/mol
25,GCGTACACGTGGTGGA,0.01 kcal/mol
26,ATGCGCACGTGTATGT,-0.08 kcal/mol

row,Sequence,relative binding free energy
1,GTTTGCACGTGTCGGT,0.03 kcal/mol
2,GGGTACACGTGTGGGG,0.11 kcal/mol
3,TATTGCACGTGCGTGT,-0.09 kcal/mol
4,TGAATCACGTGGGAAG,0.04 kcal/mol
5,AGTCACACGTGGTCGG,-0.01 kcal/mol
6,ATGTACACGTGTAAAT,0.14 kcal/mol
7,GCCTGCACGTGTAGGG,0.05 kcal/mol
8,AATGCCACGTGGTAGG,-0.23 kcal/mol
9,TTAGTCACGTGCGTAA,0.01 kcal/mol
10,AGGTTCACGTGGTAAG,0.25 kcal/mol
11,TTAGACACGTGGCGTG,-0.24 kcal/mol
12,CGGGGCACGTGGGACA,-0.19 kcal/mol
13,GCGCGCACGTGGGGCG,-0.26 kcal/mol
14,GATTTCACGTGATATG,0.34 kcal/mol
15,TGTTTCACGTGGACTA,0.29 kcal/mol
16,GCATTCACGTGGGTTT,0.2 kcal/mol
17,ATCTGCACGTGAGAGT,0.28 kcal/mol
18,TAGAGCACGTGTTTCG,-0.1 kcal/mol
19,ATCGGCACGTGATGGG,0.07 kcal/mol
20,TTCATCACGTGCTGGG,0.23 kcal/mol
21,TGTGCCACGTGAAAGT,0.1 kcal/mol
22,ACATTCACGTGGCGTG,0.22 kcal/mol
23,GGGAGCACGTGTTTGA,-0.09 kcal/mol
24,AATTGCACGTGCTGTG,-0.15 kcal/mol
25,GGGGTCACGTGCGGTG,0.13 kcal/mol
26,GGATTCACGTGGGGCC,0.17 kcal/mol

row,Sequence,relative binding free energy
1,TTTGGCACGTGATTCG,-0.02 kcal/mol
2,AATTGCACGTGAATAG,0.28 kcal/mol
3,TTTCACACGTGCTTGG,0.18 kcal/mol
4,CTGTACACGTGGGGGG,0.01 kcal/mol
5,ATTAACACGTGGTAAA,0.03 kcal/mol
6,GGAGTCACGTGGAGGC,0.09 kcal/mol
7,GTTATCACGTGTGGCA,0.24 kcal/mol
8,GAAAGCACGTGTTTTT,0 kcal/mol
9,CAAGTCACGTGGGGTC,-0.06 kcal/mol
10,AATGGCACGTGCTTTA,-0.14 kcal/mol
11,GTTAGCACGTGCATGA,0.08 kcal/mol
12,GCGATCACGTGGGTAG,0.05 kcal/mol
13,GTTATCACGTGTTTGC,0.19 kcal/mol
14,GTTGTCACGTGAGACT,0.22 kcal/mol
15,TTTACCACGTGTTGGA,-0.03 kcal/mol
16,GTGTGCACGTGATTAA,0.16 kcal/mol
17,GGTTACACGTGCACGG,0.22 kcal/mol
18,GTTTACACGTGGAATT,0.2 kcal/mol
19,ATCGTCACGTGTGGCG,0.04 kcal/mol
20,GGAAGCACGTGTTTGT,-0.06 kcal/mol
21,TTAAACACGTGTGATG,0 kcal/mol
22,GTTTGCACGTGAGAGC,0.22 kcal/mol
23,TGTGGCACGTGCTGCG,-0.25 kcal/mol
24,CTAGTCACGTGGAGTA,0.04 kcal/mol
25,TTGTGCACGTGTAAAA,0.1 kcal/mol
26,GGCGACACGTGTTAGT,0.1 kcal/mol

row,Sequence,relative binding free energy
1,GGGGTCACGTGTTTAG,0.07 kcal/mol
2,GTAAGCACGTGATTAT,0.08 kcal/mol
3,TGATACACGTGCGGTG,-0.05 kcal/mol
4,AAGGGCACGTGGGAGC,-0.13 kcal/mol
5,AGGATCACGTGGGCGC,0.05 kcal/mol
6,TTGGTCACGTGTTGGT,0.13 kcal/mol
7,AAACACACGTGGTGTT,-0.02 kcal/mol
8,TAAGTCACGTGGGCGA,-0.05 kcal/mol
9,TGTGACACGTGTCATT,-0.01 kcal/mol
10,TATAACACGTGTTAAT,0 kcal/mol
11,GGTTCCACGTGGTTGC,0.2 kcal/mol
12,AATTTCACGTGTTGGC,0.3 kcal/mol
13,ATGAACACGTGGGGGA,-0.21 kcal/mol
14,ACTTTCACGTGCTTGG,0.27 kcal/mol
15,TAAGGCACGTGGGTCT,-0.37 kcal/mol
16,GGGATCACGTGTATGG,0.24 kcal/mol
17,TGTTGCACGTGTGAAC,0.05 kcal/mol
18,GTTGGCACGTGGTAAT,0.01 kcal/mol
19,ACGTGCACGTGGGGAG,-0.14 kcal/mol
20,TGGTTCACGTGAGCAT,0.3 kcal/mol
21,GGAGACACGTGTGGTT,0.17 kcal/mol
22,AATTCCACGTGTGTTG,0.02 kcal/mol
23,GTGGGCACGTGTTACT,-0.03 kcal/mol
24,TTTAGCACGTGTTCAA,-0.14 kcal/mol
25,GGATGCACGTGTTCGG,-0.05 kcal/mol
26,GTAGACACGTGGGGGT,-0.08 kcal/mol

row,Sequence,relative binding free energy
1,GTTTACACGTGCAGTA,0.15 kcal/mol
2,GAAGTCACGTGGGGGG,0.11 kcal/mol
3,GCAGGCACGTGGAGTG,-0.19 kcal/mol
4,GCGTTCACGTGTGTGG,0.34 kcal/mol
5,GGGGGCACGTGATGAG,0.07 kcal/mol
6,ATGGTCACGTGGGGTC,-0.01 kcal/mol
7,GAATGCACGTGTGATT,0.16 kcal/mol
8,GGGTTCACGTGATCTT,0.47 kcal/mol
9,ATAGGCACGTGATGGG,-0.09 kcal/mol
10,CTTGTCACGTGCTGTA,-0.01 kcal/mol
11,GGTTTCACGTGGTCCT,0.3 kcal/mol
12,TTTTGCACGTGCGTGC,-0.1 kcal/mol
13,TATATCACGTGGTAAG,0.21 kcal/mol
14,TTTCTCACGTGGTTGG,0.17 kcal/mol
15,TGTAGCACGTGCGAGG,-0.03 kcal/mol
16,GCTTGCACGTGGATAT,0.14 kcal/mol
17,GGCGACACGTGTGGGT,0.16 kcal/mol
18,TATGCCACGTGTTATT,-0.08 kcal/mol
19,AGGATCACGTGGGTAA,0.03 kcal/mol
20,CGCTTCACGTGGAAGG,0.23 kcal/mol
21,ATAGTCACGTGTCGAT,0.12 kcal/mol
22,CCGGGCACGTGAGGGC,0.15 kcal/mol
23,AGTGTCACGTGTGTGC,0.07 kcal/mol
24,GGACGCACGTGGGAGA,-0.1 kcal/mol
25,TTTGCCACGTGTTTTG,-0.14 kcal/mol
26,TGGGTCACGTGGAATT,0.23 kcal/mol

row,Sequence,relative binding free energy
1,CATATCACGTGTGTTG,0.23 kcal/mol
2,TTTAGCACGTGTGAAG,0.04 kcal/mol
3,GTTGTCACGTGTGCTG,0.08 kcal/mol
4,TGTGCCACGTGGATAG,0 kcal/mol
5,CGTAGCACGTGGTTAG,-0.05 kcal/mol
6,TTCTGCACGTGGTCGG,-0.1 kcal/mol
7,GAAGACACGTGAGTTG,0.39 kcal/mol
8,TGTGGCACGTGAGGCG,0.04 kcal/mol
9,AGTCGCACGTGGGGAG,-0.09 kcal/mol
10,GAAAGCACGTGGTGGG,-0.01 kcal/mol
11,CATGGCACGTGGGAGG,-0.17 kcal/mol
12,TGAAACACGTGAGGTG,0.09 kcal/mol
13,TTGCTCACGTGTATTA,0.32 kcal/mol
14,AGTTTCACGTGAGGAG,0.46 kcal/mol
15,TGATGCACGTGCAGTT,0.04 kcal/mol
16,ATATGCACGTGGAAGA,-0.03 kcal/mol
17,GTCTGCACGTGTTGAT,0.03 kcal/mol
18,TGACACACGTGGATTG,0.2 kcal/mol
19,TTTTGCACGTGACGTC,0.17 kcal/mol
20,TTAGGCACGTGAAAGG,0.04 kcal/mol
21,TTTTGCACGTGGCGTG,-0.01 kcal/mol
22,TTAGACACGTGGGTGC,-0.12 kcal/mol
23,TTTTGCACGTGCTTAA,0.02 kcal/mol
24,GTGTTCACGTGTGCAA,0.27 kcal/mol
25,ATAGACACGTGTTAGT,0.08 kcal/mol
26,TGATCCACGTGTGTGA,0.03 kcal/mol

row,Sequence,relative binding free energy
1,GAGGTCACGTGCGGAG,0.22 kcal/mol
2,GGGGTCACGTGGAGGA,0.17 kcal/mol
3,TGTTACACGTGTAGAG,0.21 kcal/mol
4,TTGGTCACGTGCTGGT,0.13 kcal/mol
5,TGGAGCACGTGAGGCT,0.02 kcal/mol
6,TGTTACACGTGTTCAA,0.19 kcal/mol
7,TGTTTCACGTGCTTTC,0.15 kcal/mol
8,TTCGACACGTGAATGG,0.24 kcal/mol
9,GGTTTCACGTGAGGGG,0.47 kcal/mol
10,AGGGACACGTGGGGGA,-0.18 kcal/mol
11,GCAGGCACGTGGTTTG,-0.12 kcal/mol
12,TGTATCACGTGACAGT,0.06 kcal/mol
13,GCAGGCACGTGGTTTA,-0.23 kcal/mol
14,AGTTGCACGTGTGTAT,-0.02 kcal/mol
15,AGTTACACGTGATGGT,0.15 kcal/mol
16,ATGCCCACGTGTGGGT,-0.2 kcal/mol
17,CGTGCCACGTGTCGGG,-0.04 kcal/mol
18,TGGATCACGTGAAAGA,0.54 kcal/mol
19,GGATACACGTGTTTTA,0.08 kcal/mol
20,GGAATCACGTGAGGAG,0.2 kcal/mol
21,CAATTCACGTGTTGGT,0.35 kcal/mol
22,GGTAACACGTGAATAG,0.4 kcal/mol
23,TAGTTCACGTGTTACG,0.35 kcal/mol
24,TGTGTCACGTGGATTC,0.16 kcal/mol
25,ATTCTCACGTGTGTAT,0.18 kcal/mol
26,GTGTACACGTGGAAGA,0.2 kcal/mol

row,Sequence,relative binding free energy
1,TGGTTCACGTGCTCGG,0.2 kcal/mol
2,CTAATCACGTGGTGGG,0.12 kcal/mol
3,TGTTGCACGTGGGACT,-0.16 kcal/mol
4,GCGGGCACGTGAGTGT,0.18 kcal/mol
5,TGCGTCACGTGATTCG,0.2 kcal/mol
6,CGGGGCACGTGATTAG,-0.04 kcal/mol
7,GGTGCCACGTGAGTTA,0.16 kcal/mol
8,GAGTTCACGTGCATGT,0.41 kcal/mol
9,TTTTGCACGTGGATGC,0.13 kcal/mol
10,TAGTGCACGTGGGAAT,-0.04 kcal/mol
11,AAGTTCACGTGTGTCG,0.26 kcal/mol
12,GTACACACGTGGGTTT,-0.13 kcal/mol
13,GTTCGCACGTGTTGAG,-0.08 kcal/mol
14,AATCGCACGTGTGTGG,0 kcal/mol
15,TTTTTCACGTGCTGAA,0.21 kcal/mol
16,CTTCGCACGTGGTAGG,-0.17 kcal/mol
17,GGCGACACGTGTGGAG,0.16 kcal/mol
18,TCTTTCACGTGTTATC,0.3 kcal/mol
19,TGTGGCACGTGTGAAG,0.04 kcal/mol
20,TGGTGCACGTGGTGAT,-0.12 kcal/mol
21,TTTTTCACGTGAGGTT,0.32 kcal/mol
22,TTGTTCACGTGTGATA,0.27 kcal/mol
23,TTAAGCACGTGAAGGA,0.29 kcal/mol
24,AGTGTCACGTGGGCAC,-0.06 kcal/mol
25,GGGAGCACGTGGAATA,0.11 kcal/mol
26,TATTACACGTGTTTCT,0.22 kcal/mol

row,Sequence,relative binding free energy
1,GGTGCCACGTGCGTGT,-0.01 kcal/mol
2,GGACGCACGTGTTGTA,-0.01 kcal/mol
3,GTATGCACGTGAAGGC,0.4 kcal/mol
4,GGTGTCACGTGAAGTT,0.31 kcal/mol
5,TTGGGCACGTGCGTGT,-0.24 kcal/mol
6,CAGTGCACGTGGTGTA,-0.06 kcal/mol
7,GAGTTCACGTGCGGTT,0.25 kcal/mol
8,AGCTTCACGTGTCTGT,0.38 kcal/mol
9,CGGTGCACGTGAGTAA,0.19 kcal/mol
10,AACTGCACGTGCGGGT,-0.06 kcal/mol
11,GGGGGCACGTGCGTGG,-0.23 kcal/mol
12,TCTTACACGTGTTTGT,0.11 kcal/mol
13,CGTTACACGTGCGGGA,0.07 kcal/mol
14,AGTTACACGTGGATTG,0.09 kcal/mol
15,TTGGTCACGTGTGTTA,0.17 kcal/mol
16,ATTTGCACGTGGTCGA,0.03 kcal/mol
17,ATTTACACGTGAAGGG,0.38 kcal/mol
18,GCGATCACGTGAGGGG,0.33 kcal/mol
19,GTAGGCACGTGTGGCC,-0.13 kcal/mol
20,GGGATCACGTGTATCG,0.17 kcal/mol
21,TGTACCACGTGGTTGA,-0.14 kcal/mol
22,TAAAACACGTGTTTGG,-0.21 kcal/mol
